In publication PMC4336329 (PLoS ONE, 2015):
Out of some 310,000 compounds screened, about 14,000 (4.5%) showed an effect of 50% or more. The effect is printed as a negative number. The list shows a part of the results.

Each compound was assayed against human ether-à-go-go-related gene (hERG) potassium channel (human, UniProt Q12809) (assay: primary screen, population patch clamp on CHO cells stably expressing hERG).
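Further: peak tail current of the secondary pulse compared with the same well before compound.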

Chain of human ether-à-go-go-related gene (hERG) potassium channel (Q12809 whole entry, looked up): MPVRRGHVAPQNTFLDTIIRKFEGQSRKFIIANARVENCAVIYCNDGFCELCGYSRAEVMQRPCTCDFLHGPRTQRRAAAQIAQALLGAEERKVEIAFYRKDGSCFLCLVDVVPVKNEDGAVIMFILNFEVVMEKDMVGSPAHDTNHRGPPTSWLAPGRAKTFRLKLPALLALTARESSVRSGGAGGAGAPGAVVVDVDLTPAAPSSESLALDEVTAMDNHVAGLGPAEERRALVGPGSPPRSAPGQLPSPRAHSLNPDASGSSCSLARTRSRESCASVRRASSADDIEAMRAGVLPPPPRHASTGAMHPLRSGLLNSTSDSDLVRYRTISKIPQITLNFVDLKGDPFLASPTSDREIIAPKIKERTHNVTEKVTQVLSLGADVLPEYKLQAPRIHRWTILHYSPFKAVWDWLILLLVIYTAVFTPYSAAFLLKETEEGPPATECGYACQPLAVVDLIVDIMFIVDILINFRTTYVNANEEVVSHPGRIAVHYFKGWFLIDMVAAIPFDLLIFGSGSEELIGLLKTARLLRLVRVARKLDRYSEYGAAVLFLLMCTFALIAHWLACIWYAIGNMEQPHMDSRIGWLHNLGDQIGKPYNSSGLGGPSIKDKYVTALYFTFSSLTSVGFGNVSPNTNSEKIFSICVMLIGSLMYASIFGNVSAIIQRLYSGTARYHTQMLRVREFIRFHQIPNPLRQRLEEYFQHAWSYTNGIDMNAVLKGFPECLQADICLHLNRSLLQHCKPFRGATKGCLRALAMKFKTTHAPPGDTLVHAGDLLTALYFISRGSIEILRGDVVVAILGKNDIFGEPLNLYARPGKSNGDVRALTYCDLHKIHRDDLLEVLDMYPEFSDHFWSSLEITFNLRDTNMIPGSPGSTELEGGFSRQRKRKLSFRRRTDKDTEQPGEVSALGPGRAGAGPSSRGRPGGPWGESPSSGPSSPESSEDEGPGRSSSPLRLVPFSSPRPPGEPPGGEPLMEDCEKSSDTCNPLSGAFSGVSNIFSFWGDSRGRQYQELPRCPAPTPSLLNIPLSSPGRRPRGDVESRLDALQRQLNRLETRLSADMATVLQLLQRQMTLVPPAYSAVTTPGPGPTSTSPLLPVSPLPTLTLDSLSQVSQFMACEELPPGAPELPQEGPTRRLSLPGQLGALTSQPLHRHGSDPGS

| Compound | hERG current change (%, negative = inhibition) at 10uM |
| --- | --- |
| CCOC(=O)C(NC(=O)NCc1cccc(C(F)(F)F)c1)(OCC)C(F)(F)F (stereo not drawn) | 19.8% |
| C1CCN(c2nc3nonc3nc2N2CCCC2)C1 | 4.84% |
| CCc1cc2cc(C)cc(C)c2nc1Cl | 22.6% |
| Cc1cc(NS(=O)(=O)c2ccc(NC(=O)c3cc(-c4ccccc4Cl)nc4ccccc34)cc2)no1 | -27.2% |
| CCCOC(=O)c1ccc(Oc2cn[nH]c2-c2ccc(OCC(=O)NN)cc2O)cc1 | -0.979% |
| Cc1cc(C)c(C)c(S(=O)(=O)N2CCC(C(=O)NC3=NCCS3)CC2)c1C | -0.713% |
| CCOc1cc(Br)c(C(C)NC(=O)c2cccnc2)cc1OCC (stereo not drawn) | -5.16% |
| CCCn1cc(CN2CCC(n3nccc3NC(=O)c3ccc4c(c3)OCO4)CC2)c(C)n1 | -5.62% |
| Cc1ccc(C)c(N(CC(=O)NCCSCc2ccco2)S(C)(=O)=O)c1 | 8.7% |
| COCCN(C(=S)Nc1c(C)cccc1C)C(C)c1ccco1 (stereo not drawn) | -10.7% |
| COc1ccc(Cl)cc1N(CC(=O)N/N=C/c1ccc(OC(C)C)cc1)S(=O)(=O)c1ccc(C)c([N+](=O)[O-])c1 | 21.4% |
| CCOc1ccc(N(C(C)C(=O)NC(C)CC)S(C)(=O)=O)cc1 (stereo not drawn) | 6.99% |
| CSc1nnc(-c2cc(Br)ccc2N=Cc2c(C)[nH]n(-c3ccccc3)c2=O)c(=O)[nH]1 | -19.2% |
| C#CCNC(=O)/C=C/c1ccc(OC)cc1 | 0.687% |
| O=C(CSc1n[nH]c(=O)n1C1CC1)c1c[nH]c2ccccc12 | 9.29% |
| Cc1noc(C)c1S(=O)(=O)N1CCC(C(N)=O)CC1 | 11.9% |
| COc1cccc(-n2c(C)cc(/C=C3\C(=N)N4N=C(CC(=O)N5CCOCC5)SC4=NC3=O)c2C)c1 | -5.1% |
| Cn1c(N)c(C(=O)COC(=O)C23CC4CC(CC(C4)C2)C3)c(=O)n(C)c1=O | -22.6% |
| CN(C)CCC(=O)NCC1OCCc2ccccc21 (stereo not drawn) | -2.16% |
| COc1ccc(NC(=O)c2ccc(Cl)c(NC(=O)c3ccncc3)c2)cc1 | -36.1% |
| CCOC(=O)C1C(c2ccc(O)c(OC)c2)NC(=O)NC1(O)C(F)(F)F (stereo not drawn) | 13.7% |
| Cc1cccn2c(CN3CCSCC3)c(C(=O)N3CCOCC3)nc12 | 0.407% |
| Cc1ccc(NS(=O)(=O)c2ccc(OCC(=O)N3CCOCC3)cc2)cc1 | -2.62% |
| COCCn1c(SCC(=O)Nc2nc(C)c(Cl)cc2Cl)nc2ccccc21 | -47.3% |
